{"source": "patent US20200299675A1", "about": "(published 2020)", "binders": {"B1": {"name": "Streptavidin (other)", "chain": "not shown"}}, "experiment_in_all_cases": "ELISA", "key": {"[1]": {"target": "Strep-m4", "sequence (P22629 other isoform, or with tags, fused parts or gaps)": "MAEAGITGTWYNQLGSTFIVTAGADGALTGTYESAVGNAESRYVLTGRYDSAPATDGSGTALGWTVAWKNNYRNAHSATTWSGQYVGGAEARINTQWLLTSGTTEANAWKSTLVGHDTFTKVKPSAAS"}, "[2]": {"target": "Strep-m1", "sequence (P22629 other isoform, or with tags, fused parts or gaps)": "as above"}, "[3]": {"target": "Strep-m16", "sequence (P22629 other isoform, or with tags, fused parts or gaps)": "as above"}, "[4]": {"target": "Strep-m12", "sequence (P22629 other isoform, or with tags, fused parts or gaps)": "as above"}}, "data": [{"binder": "B1", "values": [{"measurement": "Kd", "setting": "[1]", "result": 550, "unit": "nM"}, {"measurement": "Kd", "setting": "[2]", "result": 150, "unit": "nM"}, {"measurement": "Kd", "setting": "[3]", "result": "> 2000", "unit": "nM"}, {"measurement": "Kd", "setting": "[4]", "result": 425, "unit": "nM"}]}]}
